From the RNAGym collection of RNA variant scans (doi:10.1073/pnas.2313332121)
Variants at the floor of the assay are shown more often than the library holds them.

B1: TPR 5TU (parent)
chain: GGAUCUUCUCGAUCUAACAAAAAAGACAAAUCUGCCACAAAGCUUGAGAGCAUCUUCGGAUGCAGAGGCGGCAGCCUUCGGUGGCGCGAUAGCGCCAACGUUCUCAACUAUGACACGCAAAACGCGUGCUCCGUUGAAUGGAGUUUAUCAUG

Variants of: B1
Experiment: polymerase ribozyme fitness, log enrichment relative to wild type (log ratio); higher = more active; in vitro selection for triplet polymerase activity
In short: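 Libraries of mutants in each subunit of a heterodimeric triplet polymerase ribozyme were generated by PCR and transcribed. In triplicate, each went through one in vitro selection round: annealing with biotinylated primer, partner subunit and triplets; frozen incubation at −7 °C; gel excision of extended constructs; streptavidin-bead capture; RT-PCR. Fitness, taken from Illumina sequencing of input and output libraries, is the logarithm of a genotype's enrichment over wild-type enrichment, averaged across replicates with inverse-variance weights. The logarithm is base 2, and genotypes needed ≥10 input reads and ≥1 read per output to be kept.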

Row | Variant | polymerase ribozyme fitness (log ratio)
1 | A29C G50U C79G G128A U144A | ≤ -4.2
2 | A29C G59A G94U U102A A106G G141A | ≤ -4.2
3 | A29G G48A A64G C79U A106U U111A | ≤ -4.2
4 | C27U U33G G68C C69U C76U C95A C103U A110C G133A U139G | ≤ -4.2
5 | A29G U55A C95U U101C U109A G133A | ≤ -4.2
6 | A29G G58C A73U G92C A98G C125A | ≤ -4.2
7 | C27U C43A A97U A150G | ≤ -4.2
8 | A29C C54A U55G G88A G92U G124U | ≤ -4.2
9 | A29C A49G C87A A150G | ≤ -4.2
10 | A28C U31G A41U G65A C85G G88U C96U C103U U135G | ≤ -4.2
11 | A28C C38U A39U C57A | ≤ -4.2
12 | A29U A40C G42U G71C G86U A97C U134A | ≤ -4.2
13 | A28U A47C | -3.9
14 | A28C C38U G70C A142U | ≤ -4.2
15 | A28G A91C C116U A120G U127G | ≤ -4.2
16 | A28C A30C A40U A47C G48U A91U | ≤ -4.2
17 | A28U C103G G152U | ≤ -4.2
18 | A29U C36G G46A A66C G68A C87A | ≤ -4.2
19 | A28G C36U | ≤ -4.2
20 | A28G G34U G80A U102A C108G | ≤ -4.2
21 | A28G C93U C105G | ≤ -4.2

Row | Variant | polymerase ribozyme fitness (log ratio)
22 | C27U C57A C87A A115U | ≤ -4.2
23 | A29U C35A A60G C85A G126A | ≤ -4.2
24 | C27U A28G U53G A73G C85U G86C A120U C132U | ≤ -4.2
25 | A28U U55G A89G A121U | ≤ -4.2
26 | A29U A30U C95A A107U C108G A115C U134C U148C | ≤ -4.2
27 | C27U A52C C85U G86C C87A G92C C93U G126A C149A | ≤ -4.2
28 | A28C C32A C35A U55A G84U U104G G143A U148A | ≤ -4.2
29 | C27U U31C A52C U78C U101A C125G | ≤ -4.2
30 | A28C G70A C76A G83A C87U C96U U135G | ≤ -4.2
31 | C27U A39G A40C C69A U77C G94U C95A C116U G140U | ≤ -4.2
32 | A28G A47U A60G | ≤ -4.2
33 | C27U G58C U139C | ≤ -4.2
34 | A29C A30C G65A C93U G136A | ≤ -4.2
35 | A29G C35G G84C G100A | ≤ -4.2
36 | A29U C32U G62A G67U C75G U82G A142U A150G | -3.64
37 | A28U U56A A91U C96G A107G C118A U146G | ≤ -4.2
38 | A29G U45A C87G C93U C118G G124U G133U A138C | ≤ -4.2
39 | A28C A60G A110U | ≤ -4.2
40 | A29U A41U U53G G88U A89G G117A | ≤ -4.2
41 | C27U A47U C76A C85U C108U G128C | ≤ -4.2
42 | A28U G133A A142G | ≤ -4.2

Row | Variant | polymerase ribozyme fitness (log ratio)
43 | A29G C93G A121U A138C | ≤ -4.2
44 | A28C C43U U56A A107C | ≤ -4.2
45 | A28G A30U C69U C87G | ≤ -4.2
46 | A28G C35A U45A G86U U101G C125G G126A | ≤ -4.2
47 | A28G G50C A122G U145C U148A | ≤ -4.2
48 | A28U C43U C72U G84A C93G C132U A147C | ≤ -4.2
49 | C27U U45A G48C G50A C63U G92C | ≤ -4.2
50 | A28C C93U | -4.16
51 | A28U A29G C75G G81U C85G A106C C129A | ≤ -4.2
52 | A28U C96U U144G | ≤ -4.2
53 | A28U A40U U56A G68A A73G G74U U135G | ≤ -4.2
54 | A28C C38A A49U U56A C118U | ≤ -4.2
55 | A29G A47C G70A C85G A89U A138C A142U | ≤ -4.2
56 | A28U C93U G140U | ≤ -4.2
57 | A28G G58U | ≤ -4.2
58 | C27U U55A G70C A91U A97U A106G | ≤ -4.2
59 | A28U C35G U90C C118G | ≤ -4.2
60 | A28U C57A C93G A106G | ≤ -4.2
61 | A29G C35U A60U G74U A106G A122G G124A | ≤ -4.2
62 | C27U C43A C75U C125G | ≤ -4.2
63 | C27U U31A A52C C54U C93G | ≤ -4.2

Row | Variant | polymerase ribozyme fitness (log ratio)
64 | A28C A52G C87A C103G U104G G117C A138U | ≤ -4.2
65 | A29U A30G G86U G140A | ≤ -4.2
66 | A28U A47C U130G | ≤ -4.2
67 | A28C U61G G67A C69A C93G A113U G124U | ≤ -4.2
68 | A29U A97U A115U G124C U134C U148A | ≤ -4.2
69 | A28G C54G U56A A60C C85U G86A C105A C118G G124A G140A U144C U145G A147U A150C | ≤ -4.2
70 | C27U A37C A52C C87U G88C | ≤ -4.2
71 | A28G U44A C79U | ≤ -4.2
72 | A29U A40U A52G C54A C76G G80A U109A | ≤ -4.2
73 | A29C C51A C87G | ≤ -4.2
74 | A28C G88A | ≤ -4.2
75 | A28U A73G | ≤ -4.2
76 | A29C C38U U44G C57A A107U A110G | ≤ -4.2
77 | A28C A29U A30U C85U C99G A121G U148A | ≤ -4.2
78 | A28G C54U U90C G94A C131U | ≤ -4.2
79 | A29U A30C U130G A138U | ≤ -4.2
80 | A28G U45A C103G A122U C123U | ≤ -4.2
81 | C27U A39G G70C C76U G80A U82A A98U | ≤ -4.2
82 | A29U A30U C87G C114A U144A | ≤ -4.2
83 | A28C G86U | ≤ -4.2
84 | A28C G34A A41C C123G A138U G140U G152A | ≤ -4.2
